Laboratory results as given in the supplement of paper PMC3334620.
Whole data set: some 33,000 sequences, median “E-score (-0.5 to 0.5)” near -0.053, cut for the highest 2% near 0.37. Some of the results follow.

molecular target: Hap1 (UniProt P0CE41); experiment: PBM E-score (8-mer binding enrichment) (E-score (-0.5 to 0.5)); higher = stronger / more preferred TF binding; most listed sequences are background and not binding sites; settings: protein concentration: 200 nM; construct: GST-DNA-binding domain
Procedure: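 Universal 'all 10-mer' protein binding microarrays (Agilent AMADID 015681) probed with GST-tagged S. cerevisiae TFs (full-length or DBD) made by in vitro transcription/translation (PURExpress), about 100-200 nM. Bound TF was detected with fluorescent anti-GST. Each ungapped 8-mer (which stands for itself and its reverse complement) is scored by the PBM enrichment score (E-score), a modified Wilcoxon-Mann-Whitney statistic from -0.5 to +0.5, computed with the Universal PBM Analysis Suite. Scale: above 0.35 generally sequence-specific binding.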

UniProt P0CE41, sequence (P0CE41 whole entry, the tested form may be a part): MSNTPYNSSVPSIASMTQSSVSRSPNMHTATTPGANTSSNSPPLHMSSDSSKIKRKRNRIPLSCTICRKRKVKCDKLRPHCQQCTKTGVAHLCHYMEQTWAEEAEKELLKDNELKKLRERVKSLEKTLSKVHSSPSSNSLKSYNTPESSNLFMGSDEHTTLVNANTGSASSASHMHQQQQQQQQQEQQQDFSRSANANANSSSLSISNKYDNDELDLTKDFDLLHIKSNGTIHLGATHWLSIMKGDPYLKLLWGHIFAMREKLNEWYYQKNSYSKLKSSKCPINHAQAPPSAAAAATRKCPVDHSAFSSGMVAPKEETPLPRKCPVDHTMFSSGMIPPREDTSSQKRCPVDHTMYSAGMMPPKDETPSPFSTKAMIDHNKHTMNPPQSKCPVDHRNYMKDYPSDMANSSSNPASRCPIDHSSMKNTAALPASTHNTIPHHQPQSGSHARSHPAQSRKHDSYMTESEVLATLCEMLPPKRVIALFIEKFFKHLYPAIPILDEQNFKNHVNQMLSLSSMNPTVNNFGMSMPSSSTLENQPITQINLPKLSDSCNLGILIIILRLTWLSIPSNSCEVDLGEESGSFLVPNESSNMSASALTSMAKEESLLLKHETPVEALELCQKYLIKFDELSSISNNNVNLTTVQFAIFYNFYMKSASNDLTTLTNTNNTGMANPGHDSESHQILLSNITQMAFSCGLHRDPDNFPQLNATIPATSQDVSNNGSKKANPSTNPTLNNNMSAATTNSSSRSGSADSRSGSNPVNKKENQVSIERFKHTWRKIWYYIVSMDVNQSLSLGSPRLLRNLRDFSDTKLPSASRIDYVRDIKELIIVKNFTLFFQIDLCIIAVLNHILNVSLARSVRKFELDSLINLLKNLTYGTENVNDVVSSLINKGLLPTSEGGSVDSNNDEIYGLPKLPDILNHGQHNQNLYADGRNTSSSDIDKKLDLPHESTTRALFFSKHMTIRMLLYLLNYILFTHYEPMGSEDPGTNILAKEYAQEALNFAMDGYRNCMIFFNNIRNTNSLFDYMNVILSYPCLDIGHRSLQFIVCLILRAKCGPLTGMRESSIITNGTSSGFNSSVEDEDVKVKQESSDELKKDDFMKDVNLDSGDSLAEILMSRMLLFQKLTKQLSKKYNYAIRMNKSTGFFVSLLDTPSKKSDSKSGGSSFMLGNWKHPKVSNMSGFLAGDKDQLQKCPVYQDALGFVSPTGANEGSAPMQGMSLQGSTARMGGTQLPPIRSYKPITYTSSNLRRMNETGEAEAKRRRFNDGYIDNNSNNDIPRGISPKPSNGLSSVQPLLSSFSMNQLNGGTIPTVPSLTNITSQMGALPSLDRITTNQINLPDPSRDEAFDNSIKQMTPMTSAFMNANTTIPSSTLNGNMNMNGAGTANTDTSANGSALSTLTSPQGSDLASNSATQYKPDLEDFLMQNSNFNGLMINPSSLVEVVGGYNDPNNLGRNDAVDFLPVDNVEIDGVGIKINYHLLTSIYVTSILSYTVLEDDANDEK

| Sequence | PBM E-score |
| --- | --- |
| AGTAAGTG | -0.157 |
| CGCGCGAC | 0.2 |
| AAAGGGGA | -0.0685 |
| TCCGAACA | 0.381 |
| ACACTGTG | -0.271 |
| ACACGCAC | -0.0339 |
| ACACCTAT | -0.134 |
| TGTTAGAA | -0.229 |
| GTAACTTA | -0.0938 |
| GGTTTCAC | 0.107 |
| GGCTGGGA | 0.0713 |
| CATCCCGA | 0.176 |
| GCCTCTCA | -0.127 |
| GTATAAAA | 0.0885 |
| TCGTTAGA | -0.126 |
| CTGTTGGC | -0.164 |
| ATGCGGAG | 0.222 |
| AGTTCTAT | -0.0593 |
| ACAACATG | -0.194 |
| ACGAGTGA | -0.317 |
| CGATACTC | 0.24 |
| CCGTGAGG | -0.0134 |
| CCCAGGCA | -0.299 |
| AGACGTAC | -0.119 |
| AACCTCTC | -0.187 |

| Sequence | PBM E-score |
| --- | --- |
| AACGGCCG | 0.405 |
| CGGTGTAG | 0.28 |
| ATAGTACA | -0.0418 |
| AGGGAAGG | -0.211 |
| TAAATCTA | -0.0387 |
| AGCTGCGC | -0.044 |
| CCATTCTC | -0.0493 |
| ACTTGCGC | -0.0186 |
| AAGCATCA | -0.175 |
| ACCACTTC | -0.0947 |
| AACGCAAT | 0.0802 |
| TCTCAAGA | -0.0524 |
| CGTATGGC | -0.165 |
| GTCTTGGA | -0.204 |
| CCGCGCCC | 0.154 |
| AAGAGTAC | -0.117 |
| GGCCCGGA | 0.409 |
| AATAGAGC | -0.0666 |
| CGAGGTCA | -0.0121 |
| GCTCCCGA | -0.00497 |
| CAAAATCA | -0.157 |
| CCCGACAG | 0.201 |
| ATTACGAA | -0.0845 |
| ACCCCAGC | -0.0676 |
| ACGCAAAC | -0.187 |

| Sequence | PBM E-score |
| --- | --- |
| CGGCATAG | 0.0931 |
| TATTTTAA | -0.0821 |
| CCCATCAG | -0.211 |
| AGGCCGGC | 0.271 |
| CCCGTTAG | 0.263 |
| ATATGAAT | 0.0324 |
| ATGAACTA | -0.0792 |
| GATGGTGC | -0.29 |
| AGGTGCTA | -0.132 |
| ATACGTGA | -0.0894 |
| CCCAGCCA | -0.101 |
| CCTCGGTA | 0.23 |
| ATGTCTAG | -0.108 |
| ACGTCTTC | -0.154 |
| ACCTATGC | -0.0561 |
| CGCGTTAG | 0.0478 |
| AAGACCGC | 0.189 |
| ACCAACTA | -0.0754 |
| TCCGGAGA | 0.442 |
| CATCATCG | 0.0441 |
| CCACCTAG | -0.172 |
| TAGGCAGA | -0.0956 |
| GCTGGGCA | -0.195 |
| AGGTCCTC | -0.0595 |
| AGCGTGAA | -0.265 |

| Sequence | PBM E-score |
| --- | --- |
| GAGTGATC | -0.04 |
| ATTTACGA | 0.0048 |
| ATCTGACC | 0.14 |
| CACGGAAG | 0.159 |
| GAGCGCGA | 0.0945 |
| ATGACTTA | -0.224 |
| AACGTAGC | -0.215 |
| GCTGCTCC | -0.037 |
| TCCGCTAA | 0.336 |
| ACCCTTCT | -0.228 |
| CGCCGTCA | 0.163 |
| CGCTGTAC | -0.0988 |
| ACATGGGC | -0.0579 |
| TCGCTGCA | 0.0886 |
| CTGGATTA | 0.169 |
| TTACACAA | -0.15 |
| CTGTAGAC | -0.076 |
| ATACTCGA | -0.264 |
| CGCGCGCG | 0.287 |
| GCTTAGAA | -0.0878 |
| AATCCATC | -0.087 |
| CTGTAGCA | -0.103 |
| CAAAGTTA | -0.00975 |
| CTGGTTAC | -0.205 |
| ATCTTAAT | -0.106 |

| Sequence | PBM E-score |
| --- | --- |
| TCGGCCCA | 0.304 |
| ATTTGGGG | -0.0211 |
| CAAGCGAA | 0.053 |
| GGCTCGGA | 0.344 |
| GAGGCGAC | -0.164 |
| AGCAACTA | -0.0755 |
| CCTTAGTC | -0.167 |
| TCGTTACA | -0.285 |
| GGTAGGGA | 0.0501 |
| AAGGCCGG | 0.408 |
| CCCTTAAA | -0.115 |
| ATTTCCAG | 0.129 |
| CCCATATC | 0.0933 |
| GCTTCTAA | -0.178 |
| CGCAACAA | -0.187 |
| AAAACAAC | -0.305 |
| CAGGTTGA | -0.231 |
| CCTCCATC | -0.212 |
| CACATAGG | -0.15 |
| AAAATAAG | -0.195 |
| ATTGCTTC | 0.0444 |
| CGAACGCA | 0.13 |
| GCGCCTCA | 0.0896 |
| ATCGCGGC | 0.285 |
| CCATGCAG | -0.239 |

| Sequence | PBM E-score |
| --- | --- |
| AGGGCAAC | -0.0307 |
| ACATTTCT | 0.0135 |
| CACTCAAG | -0.375 |
| AACCGGCA | 0.158 |
| GGGCGGGA | 0.144 |
| AGCGTTTG | -0.183 |
| CGGAGTGC | 0.216 |
| ACAGGGGT | -0.338 |
| AGCAGCAA | -0.181 |
| GCAGGCAC | -0.11 |
| ACGACCGT | -0.0362 |
| CGAGTACA | 0.105 |
| AGGATCGC | -0.1 |
| CCGTCCAA | 0.133 |
| ACCAACAC | -0.207 |
| ACTACCCT | -0.126 |
| ACCCTTAA | 0.0529 |
| AGCTGCAC | -0.0426 |
| GACTCCAC | -0.13 |
| CTAAGAAA | -0.0774 |
| CCAACCAC | 0.0917 |
| AACTCACA | -0.198 |
| TCGGGCCA | 0.319 |
| ACTCTTTG | -0.264 |
| ACTTACAT | -0.192 |

| Sequence | PBM E-score |
| --- | --- |
| AGAAACAC | -0.0607 |
| CCCGCTAC | 0.17 |
| AAAAGGAT | -0.206 |
| GACGTCAC | -0.00738 |
| ACCATAAC | -0.0854 |
| CCTCTGTC | -0.191 |
| CACGTAAA | -0.226 |
| AGCGTGCC | -0.00934 |
| ACTGGCTA | -0.205 |
| CTCAGTAC | -0.163 |
| GAGTTCCA | -0.0628 |
| GCTGTCCC | -0.0362 |
| CGCCCCAA | 0.202 |
| CGTTTCTC | 0.136 |
| ACATCGAA | 0.0444 |
| AGATAGGA | -0.0706 |
| AGGAGTAG | -0.195 |
| CAACAAGA | -0.156 |
| AGGACCAA | -0.0317 |
| AACTCCAA | -0.0924 |
| CATAAAAG | -0.15 |
| CCACCTAC | -0.268 |
| CGTTCAAC | -0.0796 |
| CTTGCTGC | -0.274 |
| GATGCAAC | -0.132 |

| Sequence | PBM E-score |
| --- | --- |
| ACCGTGAG | -0.00275 |
| CTAGATCA | -0.253 |
| TTAAGGAA | -0.0562 |
| ACACGAAG | -0.0865 |
| AGGAAAGG | -0.0107 |
| TCGCCTAA | 0.0461 |
| CCTAACAG | -0.127 |
| ACGTTATG | -0.0102 |
| CATGGCTA | -0.156 |
| GCTTATTA | 0.034 |
| AACTCGAA | -0.0767 |
| AGCTCATC | -0.0143 |
| CGCAGTAC | -0.0761 |
| GACGGGCA | 0.0331 |
| GATTCCGA | 0.334 |
| AAACTAGT | -0.15 |
| ATGAGCGC | 0.0308 |
| AAAGATTA | 0.0908 |
| CGCTCTTC | -0.094 |
| GGACAGAA | 0.079 |
| ACTCGCCG | 0.202 |
| CATCCCGC | 0.0848 |
| CAGACTCA | -0.251 |
| GTACACCA | -0.203 |
| ATACGAGG | 0.0558 |

| Sequence | PBM E-score |
| --- | --- |
| AGCCGCGA | 0.223 |
| GGACGATA | 0.142 |
| CGTCGCGC | 0.133 |
| ATAAGTGA | -0.103 |
| AGCGTAGA | -0.0389 |
| AGCTGCCC | 0.157 |
| AATCAGGA | -0.225 |
| GCCAATAC | 0.0676 |
| ATCACATG | -0.204 |
| ACAACGGA | 0.275 |
| GACCCGCC | 0.112 |
| CTGATCCC | -0.089 |
| CTACATAG | -0.107 |
| AAGCTCAC | -0.0627 |
| AGATGGCT | -0.0974 |
| CCCCTCGG | 0.284 |
| ACCACGAC | -0.195 |
| GCTTGCGA | -0.0221 |
| ATTCATTG | -0.204 |
